Test results: paper PMC3017775
These are yes or no findings as the source states them, for the method shown. Some results given as binding are weak or reduced against the parent protein; the word gives no strength.

T1: GDEF1 (Gerbera hybrida) (UniProt Q9ZS28)
T1 sequence: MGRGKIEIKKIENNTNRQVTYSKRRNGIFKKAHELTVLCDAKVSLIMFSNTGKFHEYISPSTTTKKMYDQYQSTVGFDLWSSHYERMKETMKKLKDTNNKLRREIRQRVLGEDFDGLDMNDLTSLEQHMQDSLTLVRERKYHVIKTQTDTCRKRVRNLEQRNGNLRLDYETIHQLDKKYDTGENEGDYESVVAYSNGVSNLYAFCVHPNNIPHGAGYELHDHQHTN

T2: GDEF2 (Gerbera hybrida) (UniProt Q9ZS27)
T2 sequence: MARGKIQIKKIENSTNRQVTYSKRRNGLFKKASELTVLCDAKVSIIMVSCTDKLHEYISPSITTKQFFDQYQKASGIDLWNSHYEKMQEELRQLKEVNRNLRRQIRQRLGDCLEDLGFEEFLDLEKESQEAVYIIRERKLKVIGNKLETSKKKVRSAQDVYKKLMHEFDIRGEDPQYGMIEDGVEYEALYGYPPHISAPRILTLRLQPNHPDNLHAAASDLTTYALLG

T3: GGLO1 (Gerbera hybrida) (UniProt Q9ZS26)
T3 sequence: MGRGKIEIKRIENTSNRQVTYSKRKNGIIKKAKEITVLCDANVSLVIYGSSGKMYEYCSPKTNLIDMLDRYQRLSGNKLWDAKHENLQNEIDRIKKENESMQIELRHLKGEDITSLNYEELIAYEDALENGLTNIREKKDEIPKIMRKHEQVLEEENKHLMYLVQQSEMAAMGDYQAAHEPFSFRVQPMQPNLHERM

T4: GSQUA3 (Gerbera hybrida) (UniProt D2T2G1)
T4 sequence: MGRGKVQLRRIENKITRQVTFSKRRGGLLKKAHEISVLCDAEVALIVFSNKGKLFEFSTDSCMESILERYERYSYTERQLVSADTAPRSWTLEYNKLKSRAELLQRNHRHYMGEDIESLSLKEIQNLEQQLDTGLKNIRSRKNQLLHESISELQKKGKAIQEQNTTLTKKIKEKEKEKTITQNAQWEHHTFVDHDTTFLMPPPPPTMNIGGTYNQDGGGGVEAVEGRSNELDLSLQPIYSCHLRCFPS

T5: GGLO1/GDEF2 dimer (Gerbera hybrida) (UniProt Q9ZS27+Q9ZS26)
T5 sequence 1: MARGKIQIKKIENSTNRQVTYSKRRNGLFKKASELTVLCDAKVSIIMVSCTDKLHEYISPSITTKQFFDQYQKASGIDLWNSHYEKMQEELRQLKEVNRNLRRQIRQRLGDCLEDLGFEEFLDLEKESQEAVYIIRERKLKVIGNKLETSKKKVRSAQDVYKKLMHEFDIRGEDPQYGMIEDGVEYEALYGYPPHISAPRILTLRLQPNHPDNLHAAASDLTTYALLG
T5 sequence 2: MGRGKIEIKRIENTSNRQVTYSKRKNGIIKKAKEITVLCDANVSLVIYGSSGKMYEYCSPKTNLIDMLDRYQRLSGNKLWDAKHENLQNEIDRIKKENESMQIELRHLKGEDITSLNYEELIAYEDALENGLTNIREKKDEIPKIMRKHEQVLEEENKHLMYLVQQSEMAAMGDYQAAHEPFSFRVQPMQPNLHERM

T6: GGLO1/GDEF1 dimer (Gerbera hybrida) (UniProt Q9ZS28+Q9ZS26)
T6 sequence 1: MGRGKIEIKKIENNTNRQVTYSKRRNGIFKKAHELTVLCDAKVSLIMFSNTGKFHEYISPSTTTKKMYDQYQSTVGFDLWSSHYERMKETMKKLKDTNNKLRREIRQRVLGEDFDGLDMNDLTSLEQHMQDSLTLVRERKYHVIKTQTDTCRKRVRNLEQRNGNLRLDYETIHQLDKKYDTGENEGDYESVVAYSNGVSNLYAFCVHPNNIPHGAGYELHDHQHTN
T6 sequence 2: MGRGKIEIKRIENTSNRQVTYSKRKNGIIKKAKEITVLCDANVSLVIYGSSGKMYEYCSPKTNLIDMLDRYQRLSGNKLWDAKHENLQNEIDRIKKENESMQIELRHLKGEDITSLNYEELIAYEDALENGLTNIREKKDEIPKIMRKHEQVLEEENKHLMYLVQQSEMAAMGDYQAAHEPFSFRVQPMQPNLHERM

T7: GSQUA2 (Gerbera hybrida) (UniProt D2T2G0)
T7 sequence: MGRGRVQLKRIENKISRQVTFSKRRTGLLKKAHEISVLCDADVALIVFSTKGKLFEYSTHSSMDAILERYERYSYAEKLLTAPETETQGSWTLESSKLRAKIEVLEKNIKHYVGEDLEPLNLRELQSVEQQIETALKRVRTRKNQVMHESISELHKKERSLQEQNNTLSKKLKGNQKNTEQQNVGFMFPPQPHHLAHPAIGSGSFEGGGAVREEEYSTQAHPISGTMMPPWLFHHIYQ


Tests used:
GDEF1 (Gerbera hybrida) = biological target: T1, GDEF1 (Gerbera hybrida); assay: two-hybrid; binding domain (pDEST32) and activation domain (pDEST22) fusions combined in both directions by mating PJ69-4A and PJ69-4α; selection on SD -Leu -Trp -Ade and SD -Leu -Trp -His + 1, 5 or 10 mM 3-AT; +22°C for 5 days; positive if either direction grew
GSQUA5 (Gerbera hybrida) = GSQUA5 (Gerbera hybrida) (UniProt D2T2G2); assay: as above
GDEF2 (Gerbera hybrida) = biological target: T2, GDEF2 (Gerbera hybrida); assay: as above
GGLO1 (Gerbera hybrida) = biological target: T3, GGLO1 (Gerbera hybrida); assay: as above
GSQUA1 (Gerbera hybrida) = GSQUA1 (Gerbera hybrida) (UniProt Q9ZS25); assay: as above
GRCD2 (Gerbera hybrida) = GRCD2 (Gerbera hybrida) (UniProt Q6EUV7); assay: as above
GAGA1 (Gerbera hybrida) = GAGA1 (Gerbera hybrida) (UniProt Q9ZS30); assay: as above
GAGA2 (Gerbera hybrida) = GAGA2 (Gerbera hybrida) (UniProt Q9ZS29); assay: as above
GSQUA3 (Gerbera hybrida) = biological target: T4, GSQUA3 (Gerbera hybrida); assay: as above
[1] = biological target: T5, GGLO1/GDEF2 dimer (Gerbera hybrida); assay: yeast three-hybrid; third protein expressed unfused from pARC351 beside binding domain (pDEST32) and activation domain (pDEST22) fusions; selection on SD -Leu -Trp -Ura -Ade and SD -Leu -Trp -Ura -His with 1, 5 and 10 mM, or 10 and 25 mM 3-AT; +22°C for 7 days
[2] = biological target: T6, GGLO1/GDEF1 dimer (Gerbera hybrida); assay: as above
GSQUA2 (Gerbera hybrida) = biological target: T7, GSQUA2 (Gerbera hybrida); assay: two-hybrid; binding domain (pDEST32) and activation domain (pDEST22) fusions combined in both directions by mating PJ69-4A and PJ69-4α; selection on SD -Leu -Trp -Ade and SD -Leu -Trp -His + 1, 5 or 10 mM 3-AT; +22°C for 5 days; positive if either direction grew

Row | binding (GDEF1 (Gerbera hybrida)) | binding (GSQUA5 (Gerbera hybrida)) | binding (GDEF2 (Gerbera hybrida)) | binding (GGLO1 (Gerbera hybrida)) | binding (GSQUA1 (Gerbera hybrida)) | binding (GRCD2 (Gerbera hybrida)) | binding (GAGA1 (Gerbera hybrida)) | binding (GAGA2 (Gerbera hybrida)) | binding (GSQUA3 (Gerbera hybrida)) | binding [1] | binding [2] | binding (GSQUA2 (Gerbera hybrida)) | Binder
1 | binds | no binding | binds | no binding | no binding | no binding | no binding | no binding | – | – | – | – | GGLO1 (protein, UniProt Q9ZS26 1-197) MGRGKIEIKRIENTSNRQVTYSKRKNGIIKKAKEITVLCDANVSLVIYGSSGKMYEYCSPKTNLIDMLDRYQRLSGNKLWDAKHENLQNEIDRIKKENESMQIELRHLKGEDITSLNYEELIAYEDALENGLTNIREKKDEIPKIMRKHEQVLEEENKHLMYLVQQSEMAAMGDYQAAHEPFSFRVQPMQPNLHERM
2 | – | – | no binding | – | – | no binding | no binding | no binding | no binding | – | – | – | GDEF2 (protein, UniProt Q9ZS27 1-228) MARGKIQIKKIENSTNRQVTYSKRRNGLFKKASELTVLCDAKVSIIMVSCTDKLHEYISPSITTKQFFDQYQKASGIDLWNSHYEKMQEELRQLKEVNRNLRRQIRQRLGDCLEDLGFEEFLDLEKESQEAVYIIRERKLKVIGNKLETSKKKVRSAQDVYKKLMHEFDIRGEDPQYGMIEDGVEYEALYGYPPHISAPRILTLRLQPNHPDNLHAAASDLTTYALLG
3 | – | no binding | – | – | – | – | – | – | no binding | binds | no binding | no binding | GSQUA2 (protein, UniProt D2T2G0 1-238) MGRGRVQLKRIENKISRQVTFSKRRTGLLKKAHEISVLCDADVALIVFSTKGKLFEYSTHSSMDAILERYERYSYAEKLLTAPETETQGSWTLESSKLRAKIEVLEKNIKHYVGEDLEPLNLRELQSVEQQIETALKRVRTRKNQVMHESISELHKKERSLQEQNNTLSKKLKGNQKNTEQQNVGFMFPPQPHHLAHPAIGSGSFEGGGAVREEEYSTQAHPISGTMMPPWLFHHIYQ
4 | no binding | no binding | no binding | – | no binding | no binding | no binding | no binding | no binding | – | – | no binding | GDEF1 (protein, UniProt Q9ZS28 1-226) MGRGKIEIKKIENNTNRQVTYSKRRNGIFKKAHELTVLCDAKVSLIMFSNTGKFHEYISPSTTTKKMYDQYQSTVGFDLWSSHYERMKETMKKLKDTNNKLRREIRQRVLGEDFDGLDMNDLTSLEQHMQDSLTLVRERKYHVIKTQTDTCRKRVRNLEQRNGNLRLDYETIHQLDKKYDTGENEGDYESVVAYSNGVSNLYAFCVHPNNIPHGAGYELHDHQHTN
5 | – | no binding | – | – | – | – | – | – | no binding | binds | no binding | – | GSQUA3 (protein, UniProt D2T2G1 1-248) MGRGKVQLRRIENKITRQVTFSKRRGGLLKKAHEISVLCDAEVALIVFSNKGKLFEFSTDSCMESILERYERYSYTERQLVSADTAPRSWTLEYNKLKSRAELLQRNHRHYMGEDIESLSLKEIQNLEQQLDTGLKNIRSRKNQLLHESISELQKKGKAIQEQNTTLTKKIKEKEKEKTITQNAQWEHHTFVDHDTTFLMPPPPPTMNIGGTYNQDGGGGVEAVEGRSNELDLSLQPIYSCHLRCFPS
